In all, about 310,000 compounds went through this assay and about 2,200 (0.71%) showed an effect of 50% or more. Effects have a minus sign here. The list shows a part of the results.
target: human ether-à-go-go-related gene (hERG) potassium channel (human, UniProt Q12809); test: primary screen, population patch clamp on CHO cells stably expressing hERG
Sequence (Q12809 whole entry, looked up): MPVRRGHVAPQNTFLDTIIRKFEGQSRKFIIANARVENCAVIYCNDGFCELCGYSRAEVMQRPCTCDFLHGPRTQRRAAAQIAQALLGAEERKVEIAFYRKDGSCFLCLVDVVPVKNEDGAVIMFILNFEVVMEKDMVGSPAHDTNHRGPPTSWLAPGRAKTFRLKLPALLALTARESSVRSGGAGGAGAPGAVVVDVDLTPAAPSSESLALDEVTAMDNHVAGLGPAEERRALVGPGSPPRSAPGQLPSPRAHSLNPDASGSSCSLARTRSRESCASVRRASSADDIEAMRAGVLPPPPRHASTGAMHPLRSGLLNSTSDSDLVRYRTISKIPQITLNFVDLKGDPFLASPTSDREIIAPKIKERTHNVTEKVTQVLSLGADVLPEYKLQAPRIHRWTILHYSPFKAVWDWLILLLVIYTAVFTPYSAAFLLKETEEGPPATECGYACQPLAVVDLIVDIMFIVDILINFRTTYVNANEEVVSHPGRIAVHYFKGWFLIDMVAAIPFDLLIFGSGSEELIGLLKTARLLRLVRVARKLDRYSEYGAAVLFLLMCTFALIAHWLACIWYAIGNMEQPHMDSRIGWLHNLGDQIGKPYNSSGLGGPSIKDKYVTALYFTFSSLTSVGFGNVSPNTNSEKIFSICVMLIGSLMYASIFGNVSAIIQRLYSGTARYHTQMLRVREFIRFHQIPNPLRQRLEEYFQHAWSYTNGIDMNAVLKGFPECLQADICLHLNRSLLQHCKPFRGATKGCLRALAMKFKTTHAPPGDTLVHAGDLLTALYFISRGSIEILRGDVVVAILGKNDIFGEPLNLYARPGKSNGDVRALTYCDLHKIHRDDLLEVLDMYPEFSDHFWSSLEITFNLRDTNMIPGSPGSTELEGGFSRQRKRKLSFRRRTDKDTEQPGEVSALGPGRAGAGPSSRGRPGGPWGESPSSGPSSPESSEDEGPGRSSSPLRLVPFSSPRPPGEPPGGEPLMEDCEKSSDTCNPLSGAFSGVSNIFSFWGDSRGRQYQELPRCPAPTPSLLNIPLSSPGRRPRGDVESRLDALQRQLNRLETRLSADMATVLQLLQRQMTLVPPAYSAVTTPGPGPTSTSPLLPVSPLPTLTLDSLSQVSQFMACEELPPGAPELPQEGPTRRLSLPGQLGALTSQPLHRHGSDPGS

Row | SMILES | hERG current change (%, negative = inhibition) at 1uM
1 | CSc1nsc(/C=C/Nc2cccc(Cl)c2)c1C#N | 13.2%
2 | O=C(N/N=C1\NC(=O)C(CO)(CO)S1)c1ccccc1 | 8.23%
3 | O=C(NC(NC1CCS(=O)(=O)C1)C(=O)c1cccs1)c1ccccc1 (stereo not shown) | 6.57%
4 | CCCCn1c(SCC(=O)NC2CCS(=O)(=O)C2)nnc1-c1ccc(OC)cc1 (stereo not shown) | 6.62%
5 | CC(C)(C)c1ccc(C(=O)C2CCCN(C(=O)C3CCOCC3)C2)cc1 (stereo not shown) | 5.39%
6 | CCOC(=O)C1CCCN(C(=O)c2cccc(NC(=O)C(CC)CC)c2)C1 (stereo not shown) | 12.7%
7 | CC(=O)Nc1ccc(S(=O)(=O)Nc2c(C)nn(-c3ccccc3)c2C)cc1 | 2.79%
8 | Cc1ccc2cc(S(=O)(=O)NCCCN3CCOCC3)ccc2c1 | 7.94%
9 | Cc1cc(NC(=O)CSc2nnc(-c3ccco3)n2Cc2ccccc2)no1 | -1.97%
10 | O=C(NCC1COc2ccccc2O1)c1cccc(S(=O)(=O)N2CCCCC2)c1 (stereo not shown) | -2.43%
11 | CC(CN1CCCCC1)C(=O)NNC(=O)C12CC3CC(CC(C3)C1)C2 (stereo not shown) | 6.9%
12 | CCOC(=O)N1CCN(C(=O)c2cc3c(=O)[nH]c4ccccc4c3s2)CC1 | 9.74%
13 | O=C(N/N=C/c1ccc(Sc2nc3ccccc3[nH]2)o1)c1ccncc1 | 10.1%
14 | CCOC(=O)c1cn(CC#N)c2cc(F)c(F)cc2c1=O | 12.7%
15 | CCCN(CC1CC1)C(=O)CSc1nnc(-c2ccco2)n1N | -9.85%
16 | Cc1cc(C)c(NC(=O)C2CC(=O)N(Cc3ccccc3)C2)c(C)c1 (stereo not shown) | 18.4%
17 | CC(=O)Nc1ccc(S(=O)(=O)NCCC(=O)Nc2cc(C)ccn2)cc1 | 7.82%
18 | COc1cc2c3c(c1)/C(=C1/SC(NC(C)=O)=NC1=O)C(=O)N3C(C)(C)C=C2C | -1.44%
19 | Cc1[nH]c2ccccc2c1C(=O)CSc1ccccn1 | -5.55%
20 | CCN(CC(=O)Nc1c(F)cccc1F)C(=O)CCCc1cccs1 | 2.48%
21 | COc1ccc(CNC(=O)c2ccc(=O)oc2)cc1OC | 13.3%
22 | CCc1ccc(C(=O)NNc2cc(Cl)cc(Cl)c2)cc1 | 9.61%

Row | SMILES | hERG current change (%, negative = inhibition) at 1uM
23 | CCCSc1nc(=S)n(Cc2ccccc2)c(C)c1C(C)=O | 1.92%
24 | Nc1nc(-c2ccc([N+](=O)[O-])cc2)c(C(=O)Nc2ccc(Cl)cc2)s1 | 13.1%
25 | COc1cccc(CN2CCNC(=O)C2CC(=O)N(C)C2CCOCC2)c1OC (stereo not shown) | 13.7%
26 | CSc1cccc(NC(=O)CN(c2ccc(C)cc2C)S(C)(=O)=O)c1 | 0.783%
27 | Cc1ccc2[nH]c3nc(SCC#N)nnc3c2c1 | 12.1%
28 | O=C(Cn1nc(C(=O)O)c2ccccc2c1=O)Nc1ccc(F)cc1F | 16%
29 | COc1ccc(N2CC(NS(=O)(=O)c3ccc4ccccc4c3)CC2=O)cc1 (stereo not shown) | 15.4%
30 | Nc1ccc2nc3c(=O)n(C4CCCCC4)c(=O)[nH]c3nc2c1 | 7.72%
31 | O=c1[nH]n2cc(-n3cc([N+](=O)[O-])cn3)cnc2c1Br | 12%
32 | c1ccc(C2CCCN(Cc3nc(CC4CC4)no3)CC2)cc1 (stereo not shown) | 10.8%
33 | CC(C)c1ccc(CNCc2ccccc2)cc1.Cl | -0.563%
34 | Cc1ccc(/C=C2\Oc3cc(OCC(=O)NN)ccc3C2=O)o1 | 12.2%
35 | COc1ccc(/C=N/OCC(=O)N(Cc2ccc(OC)cc2)c2ccccc2C(=O)O)cc1 | 5.39%
36 | O=S(=O)(Nc1nc2ccccc2nc1Cl)c1ccc2c(c1)OCCO2 | 8.99%
37 | Cc1ccc(NC(=O)c2ccco2)c(NC(=O)COc2ccccc2)c1 | 2.3%
38 | COc1cccc(C2C(C(N)=O)=C(C)Nc3nc(-c4cccc(Cl)c4)nn32)c1 (stereo not shown) | 8.64%
39 | CSc1ccccc1C(=O)C1CCCN(Cc2ccn[nH]2)C1 (stereo not shown) | 3.79%
40 | Cc1cc(C)cc(OCC(=O)Nc2ccccc2N2CCCCC2)c1 | 8.81%
41 | O=C(c1cccc(Cl)c1)N1CCC(=O)N(C(COCc2ccccc2)Cc2ccccc2)CC1 (stereo not shown) | 11.6%
42 | Cc1c(C(=O)Oc2ccc(-c3cnc4ccccc4n3)cc2)cccc1[N+](=O)[O-] | 12.9%
43 | COC(=O)C1=C(O)C(C(=O)OC)C(c2ccc(C)cc2)C(C#N)(C#N)C1c1ccc(C)cc1 (stereo not shown) | 6.75%
44 | Cc1nn(Cc2ccc(Cl)cc2Cl)c(Cl)c1/C=N/NC(=O)CNc1cccc(C(F)(F)F)c1 | 8.09%

Row | SMILES | hERG current change (%, negative = inhibition) at 1uM
45 | CCC(=O)Nc1ccc(C(=O)NNC(=O)C2CCCCC2)cc1 | 7.91%
46 | CCN(CCO)Cc1csc2ccc(Cl)cc12.Cl | 5.63%
47 | O=C(NC1=NCCS1)c1ccccc1OCc1ccc(F)cc1 | 10.2%
48 | CCOC(=O)C1CCCN(C(=O)c2cc(S(=O)(=O)Nc3ccccc3OC)ccc2C)C1 (stereo not shown) | 5.22%
49 | O=C(CN1CCN(c2ccc(F)cc2)CC1)N1N=CCC1c1ccccc1 (stereo not shown) | 3.98%
50 | Cc1ccc(NC(=O)c2ccc(-n3cncn3)c([N+](=O)[O-])c2)cc1 | 0.439%
51 | CN(c1ccc(C(=O)NCCCn2ccnc2)cc1)S(C)(=O)=O | 11.1%
52 | Cc1ccc(NC(=S)N2CCN(Cc3ccccc3)CC2)cc1 | 19.3%
53 | CCc1ccc(NC(=O)c2[nH]c(C)c(C(C)=O)c2C)cc1 | 13.8%
54 | O=C(c1ccc(F)cc1)N1CCN(c2ccc([N+](=O)[O-])cc2-n2cccc2)CC1 | -17.6%
55 | CC1CCc2c(sc(NC(=O)CCC(=O)O)c2C(=O)NC2CC2)C1 (stereo not shown) | 11.6%
56 | COC(=O)c1ccc(CN(C)S(=O)(=O)c2ccc(C)cc2)o1 | 4.95%
57 | Cc1ccc(NC(=O)c2cccc(OCc3c(C)noc3C)c2)c(C)c1 | 2.84%
58 | Cc1cc(C)nc(SCC(=O)N2CCc3ccccc32)n1 | 11.4%
59 | COc1ccc(C)cc1Nc1nc(-c2c(C)[nH]c3ccccc23)cs1 | 4.55%
60 | CC(C)c1ccc(OCc2ccc(C(=O)N3CCCC3)o2)cc1 | 10.6%
61 | OCCNc1nc(N2CCCC2)nc(N2CCCC2)n1 | 8.4%
62 | CCCCOC(=O)/C(=C\c1ccc([N+](=O)[O-])o1)NC(=O)c1ccccc1 | -7.56%
63 | O=C(NNC1=Nc2cccc3cccc1c23)c1ccc(Br)cc1 | 22.6%
64 | Cc1cccc(C(=O)OCC(=O)Nc2ccccc2C(=O)NC2CC2)c1 | 1.27%
65 | CN1C2C=C3C(C#N)=C(N)C(C#N)(C#N)[C@@H](c4cccs4)C3C1CC2 (stereo partly shown) | 8.42%
66 | Cc1ccc(S(=O)(=O)N2CCN(CCc3ccccc3)CC2)c(C)c1.O=C(O)C(=O)O | 7.03%

Row | SMILES | hERG current change (%, negative = inhibition) at 1uM
67 | CS(=O)(=O)N(CCc1ccccc1)CC(=O)NCc1ccncc1 | 8.15%
68 | COc1ccc(C(=O)Nc2nc(C)c(C)s2)cc1OC | 5.7%
69 | C[C@H](NS(=O)(=O)c1ccccc1)C(=O)OCC(=O)NC(=O)Nc1ccc2c(c1)OCCO2 | 8.95%
70 | COc1ccc(Oc2nc(-c3ccccn3)nc3ccccc23)cc1 | 10.2%
71 | COc1cc([C@@H]2c3cc4c(cc3[C@@H](O)[C@@H](CO)[C@@H]2CO)OCO4)cc(OC)c1O[Si](C)(C)C(C)(C)C | 7.41%
72 | Fc1ccccc1-c1nc(NCc2ccco2)c2ccccc2n1 | 5.53%
73 | Cc1cc(NC(=O)CN2C(=O)/C(=C/c3ccccc3F)SC2=S)no1 | 13.8%
74 | O=C(Oc1cccc(NC(=O)c2ccco2)c1)c1cccc(S(=O)(=O)N2CCCC2)c1 | -5.08%
75 | O=C(NCCCN1CCCC1)c1ccc(CS(=O)(=O)c2ccc(Br)cc2)o1 | 5.6%
76 | O=C(NN1C(=O)C2C3C=CC(C3)C2C1=O)C(O)c1ccccc1 (stereo not shown) | 10.6%
77 | Cc1ccc(C)c(-n2c(-c3ccc4c(c3)OCO4)n[nH]c2=S)c1 | 3.11%
78 | COc1cc(OC)c(C=O)c(OC(=O)N(C)C)c1 | 0.963%
79 | CC(C)NC(=O)CCN1C(=O)c2ccccc2Sc2ncccc21 | 6.59%
80 | c1ccc(-c2ccccc2-c2nc(-c3cccnc3)no2)cc1 | 12.6%
81 | O=C(Nc1ccc(N2CCCCC2)cc1)c1ccc(F)cc1 | 10.9%
82 | COC(=O)[C@@H]1C[C@@]2(O)[C@@H](O)[C@@H](O)[C@@H](O)C[C@H]2N1Cc1ccc(C)s1 | 16.1%
83 | COc1ccc(CCn2nnnc2C(c2ccc(Cl)cc2)N2CCN(C)CC2)cc1OC.Cl (stereo not shown) | 8.63%
84 | S=C1N(c2ccccc2)C(c2ccccc2)N2CCCN12 (stereo not shown) | 6.76%
85 | Cc1ccccc1CC(=O)NC1CCCCCC1 | 18.8%
86 | O=C(Nc1ccc(F)cc1F)C1CC(=O)N(Cc2ccccc2)C1 (stereo not shown) | -1.89%
87 | COc1cccc(N(CC(=O)NCCSc2ccccn2)S(=O)(=O)c2ccccc2)c1 | 7.85%
88 | COCCNC(=O)CN1CCC(NC(=O)C(C)(C)C)CC1 | 6.11%
